Two molecules from PMC3817341 (British Journal of Cancer, 2013) can be followed below.

The target in this experiment is proliferating cell nuclear antigen (human (endogenous in A2780), UniProt P12004). Description: cell-based or functional assay.
Chain of UniProt P12004 (P12004 whole entry): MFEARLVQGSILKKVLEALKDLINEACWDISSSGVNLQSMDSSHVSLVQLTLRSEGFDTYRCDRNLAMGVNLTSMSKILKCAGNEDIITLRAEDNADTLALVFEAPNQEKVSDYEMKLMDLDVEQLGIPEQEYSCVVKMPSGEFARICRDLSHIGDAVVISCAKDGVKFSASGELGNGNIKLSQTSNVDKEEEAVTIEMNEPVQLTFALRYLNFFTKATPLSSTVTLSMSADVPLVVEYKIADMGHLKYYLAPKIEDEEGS

B1: myc-p21^T145E (natural protein)
chain: not shown
For the molecule B1, the “half-life of myc-p21 in Cdk2 immunoprecipitates after cycloheximide” value worked out at 30 min and the “half-life of myc-p21 in crude lysates of A2780 cells after cycloheximide” value is ~30 min.

B2: myc-p21^T145E/S146D (natural protein)
chain: not shown
As to B2, the “half-life of myc-p21 in Cdk2 immunoprecipitates after cycloheximide” value came out at 60 min and the “half-life of myc-p21 in crude lysates of A2780 cells after cycloheximide” value is ~30 min.
